Molecular target: T1, SENP1 C603A (415–644) (human, UniProt Q9P0U3 415-644, C603A)
T1 sequence: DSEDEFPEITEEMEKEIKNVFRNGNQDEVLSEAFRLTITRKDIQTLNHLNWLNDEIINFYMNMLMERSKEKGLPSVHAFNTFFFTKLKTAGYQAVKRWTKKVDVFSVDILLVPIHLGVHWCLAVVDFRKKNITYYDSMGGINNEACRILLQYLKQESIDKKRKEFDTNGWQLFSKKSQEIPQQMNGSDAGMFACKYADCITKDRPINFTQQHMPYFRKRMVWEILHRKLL
Assay: ITC

B1: full-length SUMO-2 (SUMO-2-FL) (natural protein)
chain: not shown
Q: B1 was tested. Which Kd did it give?
A: 0.492 µM

Q: What about the dH of the same binder?
A: -18.3 kJ/mol

Q: And the “stoichiometry N” value?
A: 1
